Test results published in PubChem BioAssay (Tox21).
Inconclusive means that the source gave no clear call. Such entries were picked first, then a sample of the others. For some of these results: Where the call is inconclusive, the potency comes from a doubtful curve fit. Active and inactive are the calls of the source. Unless noted, calls come from the whole dose curve; as a rule, active = well fitted curve in the direction sought with a large enough effect in the repeat runs; inconclusive = weak or mixed curves; inactive = no such curve, though single readings can be large; an effect the other way counts as inactive or inconclusive.

Key:
[1] = qHTS assay to identify small molecule agonists of H2AX (AID 1224845; active = well fitted activation curve with a large enough effect in the signal ratio in the repeat runs, not every such curve was filed as active; inconclusive = weak or mixed curves; the % refers to the signal ratio; note: potency is the fitted concentration of half-maximal effect; for activation (H2AX phosphorylation): % is set by controls: 0 for no effect and ±100 for the full control effect); details: CHO-K1 phospho-H2AX Ser139 HTRF, 3 h; activation (H2AX phosphorylation): at 154 µM (top of the series) unless noted
Outline: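 Wild-type CHO-K1 cells, plated overnight, exposed 3hr at 37C to 15 concentrations (0.76% DMSO final). Lysed, then HTRF anti-pH2AX (S139) cryptate and anti-H2AX-d2 antibodies, 24 hr room temperature; 665/620 nm emission read.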

[2] = qHTS assay to identify small molecule agonists of the hypoxia (HIF-1) signaling pathway (AID 1224846; active = well fitted activation curve with a large enough effect in the signal ratio in the repeat runs, not every such curve was filed as active; inconclusive = weak or mixed curves; the % refers to the signal ratio; note: potency is the fitted concentration of half-maximal effect); details: HRE-bla ME-180 cells, beta-lactamase ratio, 17 h; activation: at 76.8 µM (top of the series) unless noted
Outline: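 ME-180 HRE-bla reporter cells; compounds in DMSO, 17 h at 37C; read-out beta-lactamase via CCF4-AM FRET.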

[3] = qHTS assay to identify small molecule antagonists of the estrogen related receptor (ERR) signaling pathway from Tox21 library (AID 1224848); note: potency is the fitted concentration of half-maximal effect; nearly all actives have a fitted effect of over 50% in size
Outline: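 Compounds dissolved in DMSO are pin-transferred onto ERR reporter cells (2,000 per well) that have settled for 6 h at 37 C. Plates then incubate 18 h at 37 C before ONE-Glo luciferase reagent and a luminescence read 30 min later.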

[4] = qHTS assay to identify small molecule agonists of the estrogen related receptor (ERR) signaling pathway from Tox21 library (AID 1224849; calls by dose curve; note: % is set by controls: 0 for no effect and ±100 for the full control effect; nearly all actives have a fitted effect of over 15% in size); details: ERR reporter cell line, ONE-Glo luciferase, 18 h; at 92.4 µM (top of the series)
Outline: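 Luciferase activity in ERR pathway reporter cells served as the agonist readout; exposure lasted 18 h at 37 C, with ONE-Glo detection after 30 min at room temperature.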

[5] = qHTS RealTime-Glo MT Cell Viability Assay in HepG2 cells - 24 hour (AID 1224867); note: potency is the fitted concentration of half-maximal effect; nearly all actives have a fitted effect of over 50% in size
Outline: (§1)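 Cells + NanoLuc/prosubstrate dispensed (600 cells/well) → 5 h at 37 C/5% CO2 → compounds in DMSO transferred → 40 h incubation at 37 C, luminescence read at 0, 8, 16, 24, 32, 40 h.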

[6] = qHTS RealTime-Glo MT Cell Viability Assay in HEK293 cells - 16 hour (AID 1224872); note: potency is the fitted concentration of half-maximal effect; nearly all actives have a fitted effect of over 50% in size
Outline: (§2)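 Tox21 10K qHTS, HEK293, 600 cells/well, RealTime-Glo reagent co-dispensed with cells; 5 h preincubation, compound by pintool, 37 C, luminescence at 0–40 h.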

[7] = qHTS RealTime-Glo MT Cell Viability Assay in HEK293 cells - 40 hour (AID 1224874); details: RealTime-Glo luminescence; max response: stronger effect = lower value; note: potency is the fitted concentration of half-maximal effect; nearly all actives have a fitted effect of over 50% in size
Outline: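 Kinetic, non-lysing viability readout. Seed HEK293 (600/well) with reagent, incubate 5 h at 37 C/5% CO2, pin 23 nL compound in DMSO, incubate at 37 C, read luminescence at 0, 8, 16, 24, 32, 40 h.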

[8] = A CellTox Green Cytotoxicity Assay to monitor cytotoxicity in HEK293 cells - 24 hour (AID 1224875); note: potency is the fitted concentration of half-maximal effect; nearly all actives have a fitted effect of over 45% in size
Outline: (§3)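 Real-time, in one plate: 600 HEK293 cells/well with dead-cell DNA dye, pinned compound after 5 h, 37 C incubation over 40 h; viable cells give no appreciable fluorescence.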

[9] = A CellTox Green Cytotoxicity Assay to monitor cytotoxicity in HepG2 cells - 16 hour (AID 1224876); note: potency is the fitted concentration of half-maximal effect; nearly all actives have a fitted effect of over 45% in size
Outline: (§4)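 Cytotoxicity was tracked as dead-cell DNA fluorescence in HepG2 cells treated with test compounds at 37 C; each time-point value comes from one kinetic series spanning 0, 8, 16, 24, 32 and 40 h.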

[10] = qHTS assay to identify small molecule agonists of H2AX - cell viability counter screen (AID 1224847; calls by dose curve; note: potency is the fitted concentration of half-maximal effect; nearly all actives have a fitted effect of over 30% in size)
Outline: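 Counter-screen for viability: CellTiter-Glo ATP luminescence read after 3 h compound treatment (15-point titration, 0.76% DMSO final) of CHO-K1 cells at 37C, with 30 min room-temperature reagent incubation.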

[11] = qHTS RealTime-Glo MT Cell Viability Assay in HEK293 cells - 32 hour (AID 1224868)
Outline: as §2

[12] = qHTS RealTime-Glo MT Cell Viability Assay in HepG2 cells - 32 hour (AID 1224877); note: potency is the fitted concentration of half-maximal effect; nearly all actives have a fitted effect of over 55% in size
Outline: as §1

[13] = qHTS RealTime-Glo MT Cell Viability Assay in HepG2 cells - 40 hour (AID 1224870)
Outline: (§5)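 HepG2 cells (600/well) mixed with RealTime-Glo MT reagent, settled 5 h at 37 C/5% CO2 before compound addition. Nonlytic NanoLuc luminescence from viable-cell prosubstrate reduction read repeatedly during 40 h treatment at 37 C.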

[14] = qHTS RealTime-Glo MT Cell Viability Assay in HepG2 cells - 8 hour (AID 1224873); note: potency is the fitted concentration of half-maximal effect; nearly all actives have a fitted effect of over 55% in size
Outline: as §5

[15] = A CellTox Green Cytotoxicity Assay to monitor cytotoxicity in HepG2 cells - 24 hour (AID 1224878); note: potency is the fitted concentration of half-maximal effect; nearly all actives have a fitted effect of over 45% in size
Outline: as §4

[16] = A CellTox Green Cytotoxicity Assay to monitor cytotoxicity in HEK293 cells - 40 hour (AID 1224871); note: potency is the fitted concentration of half-maximal effect; nearly all actives have a fitted effect of over 45% in size
Outline: as §3

[17] = A CellTox Green Cytotoxicity Assay to monitor cytotoxicity in HepG2 cells - 40 hour (AID 1224879); note: potency is the fitted concentration of half-maximal effect; nearly all actives have a fitted effect of over 40% in size
Outline: as §4
Tags give direction and shape of the fitted curve or compound fluorescence and quenching.

Compound: CCCCCCCCCOC(=O)c1ccc(O)cc1
- Potency [1]: inconclusive: 111 µM [activator, single point]
- Potency [2]: inconclusive: 54.2 µM
- Potency [3]: inconclusive: 47.9 µM [inhibitor]
- activity change, positive = activation [4]: inactive: -33.4%
- Potency [5]: inconclusive: 60.8 µM [falling, partial curve, poor fit]
- Potency [6]: active: 43 µM
- Potency [7]: active: 38.3 µM
- Potency [8]: active: 38.3 µM
- Potency [9]: active: 48.3 µM

Compound: Nc1cc(Cl)c([N+](=O)[O-])cc1O
- Potency [1]: inconclusive: 63.1 µM [falling, partial curve]
- Potency [2]: inconclusive: 48.6 µM [falling, partial curve, poor fit]
- Potency [10]: inconclusive: 89.1 µM [cytotoxic, partial curve]
- Potency [11]: inconclusive: 19.3 µM [cytotoxic, partial curve]
- Potency [6]: inconclusive: 19.3 µM [cytotoxic, partial curve]
- Potency [7]: inconclusive: 19.3 µM [cytotoxic, partial curve]

Compound: Cc1cc(O)c(C(C)(C)C)cc1Sc1cc(C(C)(C)C)c(O)cc1C
- activation (H2AX phosphorylation) [1]: inconclusive: -11.9%
- Potency [2]: inconclusive: 10.9 µM [falling, full curve]
- Potency [10]: active: 17.9 µM
- Potency [6]: active: 24.5 µM
- Potency [9]: inconclusive: 54.8 µM [activator, single point]

Compound: COc1cc([C@@H]2c3cc4c(cc3[C@@H](O[C@@H]3O[C@@H]5CO[C@@H](C)O[C@H]5[C@H](O)[C@H]3O)[C@H]3COC(=O)[C@H]23)OCO4)cc(OC)c1O
- Potency [1]: inconclusive: 14.1 µM [falling, full curve]
- Potency [2]: inconclusive: 48.4 µM
- Potency [10]: inconclusive: 1.58 µM [cytotoxic, single point]
- Potency [6]: inconclusive: 21.6 µM [cytotoxic, partial curve]
- Potency [7]: active: 0.684 µM
- Potency [9]: inconclusive: 48.4 µM [activator, single point]
- Potency [12]: inconclusive: 48.4 µM [cytotoxic, partial curve, poor fit]

Compound: O=C(OC[C@H]1O[C@@H](OC(=O)c2cc(O)c(O)c(OC(=O)c3cc(O)c(O)c(O)c3)c2)[C@H](OC(=O)c2cc(O)c(O)c(OC(=O)c3cc(O)c(O)c(O)c3)c2)[C@@H](OC(=O)c2cc(O)c(O)c(OC(=O)c3cc(O)c(O)c(O)c3)c2)[C@@H]1OC(=O)c1cc(O)c(O)c(OC(=O)c2cc(O)c(O)c(O)c2)c1)c1cc(O)c(O)c(OC(=O)c2cc(O)c(O)c(O)c2)c1
- Potency [1]: inconclusive: 7.66 µM [cytotoxic, partial curve]
- Potency [2]: inconclusive: 14.8 µM [single point]
- Potency [3]: inconclusive: 18.5 µM [inhibitor, single point]
- Potency [5]: inconclusive: 11.8 µM [falling, partial curve]
- Potency [13]: inconclusive: 14.8 µM [falling, single point]
- Potency [14]: inconclusive: 13.2 µM [falling, partial curve]
- Potency [7]: inconclusive: 14.8 µM [cytotoxic, single point]

Compound: Cc1cc(O)c(C(C)(C)C)cc1C(C)(C)C
- Potency [1]: active: 89.8 µM
- Potency [2]: inconclusive: 34.7 µM [falling, partial curve]
- Potency [10]: active: 50.5 µM
- Potency [13]: inconclusive: 49 µM [falling, partial curve]
- Potency [14]: active: 38.9 µM
- Potency [7]: inconclusive: 15.5 µM [cytotoxic, full curve]
- Potency [8]: active: 24.5 µM
- Potency [9]: active: 21.9 µM
- Potency [15]: active: 21.9 µM

Compound: C[n+]1cc2c3c(ccc2c2ccc4cc5c(cc4c21)OCO5)OCO3
- Potency [1]: active: 0.956 µM
- Potency [2]: inconclusive: 1.04 µM [falling, full curve]
- Potency [10]: active: 0.852 µM
- Potency [13]: active: 1.04 µM
- Potency [16]: active: 0.465 µM
- Potency [14]: active: 0.737 µM
- Potency [7]: active: 0.585 µM
- Potency [9]: active: 0.585 µM

Compound: O=C1OC(O)C(C(Cl)Cl)=C1Cl (stereo unspecified)
- Potency [1]: inconclusive: 117 µM [falling, single point]
- Potency [2]: inconclusive: 14.2 µM [falling, partial curve]
- Potency [5]: inconclusive: 40.1 µM [falling, partial curve]
- Potency [11]: inconclusive: 63.6 µM [cytotoxic, single point]
- Potency [13]: inconclusive: 40.1 µM [falling, partial curve]
- Potency [6]: inconclusive: 63.6 µM [cytotoxic, single point]
- Potency [7]: inconclusive: 63.6 µM [cytotoxic, single point]
- Potency [12]: inconclusive: 40.1 µM [cytotoxic, partial curve]
- Potency [15]: inconclusive: 50.5 µM [activator, single point]
- Potency [17]: active: 35.7 µM
